Patent publication US20260116960A1 (SHANGHAI HONGCHENG BIOPHARMACEUTICAL, published 2026)

Key:
[1] = molecular target: T1, human PD-1 on the cell surface (human, UniProt Q15116 25-288); assay: flow cytometry, 293T-hPD-1 cells, batch FACS#2
T1 construct: whole, on cells; also called cell surface PD-1
Description: After centrifugation at 300 g for 5 minutes, the supernatant was discarded. The antibodies were serially diluted 3-fold with FACS buffer to obtain two gradient series solution FACS #1 and FACS #2, with the starting concentration of 200 nM (Table 5, FACS #1) or 100 nM (Table 5, FACS #2, FIG. 2), respectively. Then 100 μL/well was added to a 96-well plate in triplicate, mixed, and incubated at 4° C. for 60 min. The plate was centrifuged and washed three times with FACS buffer. 100 μL/well of 1:800 diluted AF647-anti-hIgG(H+L) (Jackson, Catalog No.: 109-605-003) was added and incubated at 4° C. for 50 minutes. After washing the plate three times with FACS buffer, 100 μL/well of FACS buffer was added to resuspend the cells, and the fluorescence signal was detected on a flow cytometer (BECKMAN COULTER cytoFLEX). The binding activity was fitted using a four-parameter model to calculate the EC₅₀ value of each antibody binding to PD-1.

[2] = molecular target: T2, human CTLA-4 on the cell surface (human, UniProt P16410 36-223); assay: flow cytometry, CHO-hCTLA-4 cells, batch FACS#3
T2 construct: whole, on cells; also called CHO-hCTLA-4 cells; CHOK1-hCTLA4 cells

[3] = molecular target: T1, human PD-1 on the cell surface; assay: flow cytometry competition, 293T-hPD-1 cells, biotin-human PD-L1
T1 sequence (Q15116 25-288): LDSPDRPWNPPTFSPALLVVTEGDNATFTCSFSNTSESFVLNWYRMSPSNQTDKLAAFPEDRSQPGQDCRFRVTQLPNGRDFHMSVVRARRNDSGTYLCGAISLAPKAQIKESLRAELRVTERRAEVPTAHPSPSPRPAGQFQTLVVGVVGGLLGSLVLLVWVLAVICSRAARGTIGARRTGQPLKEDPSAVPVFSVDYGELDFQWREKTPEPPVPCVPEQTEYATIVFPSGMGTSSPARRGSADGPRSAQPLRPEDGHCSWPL
Description: 50 μL of antibody solution serially diluted 3-fold in FACS buffer was added in triplicate, with a starting concentration of 200 nM. After mixing, incubated at 4° C. for 60 minutes. After washing three times with FACS buffer, 100 μL/well of 1:800 diluted PE Streptavidin was added and incubated at 4° C. for 50 min. After washing three times with FACS buffer, 150 μL/well of PBS was added to resuspend the cells, and the fluorescence signal was detected on a flow cytometer (BECKMAN COULTER cytoFLEX). The four-parameter model was used to fit the binding activity and the IC₅₀ value of the blocking activity of each antibody was calculated.

[4] = molecular target: T3, human VEGF165-his protein (Acro, Catalog No. VE5-H5248) (human, UniProt P15692-4 27-191); assay: competitive ELISA, VEGF165-His coated, biotin-human KDR
T3 construct: Bought protein; also called hVEGF165-His; VEGFA; not shown: his tag
T3 sequence (looked up): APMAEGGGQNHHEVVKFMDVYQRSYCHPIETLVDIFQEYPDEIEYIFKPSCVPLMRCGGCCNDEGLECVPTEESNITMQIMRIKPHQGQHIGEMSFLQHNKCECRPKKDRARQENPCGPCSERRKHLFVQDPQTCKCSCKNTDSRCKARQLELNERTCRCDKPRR

[5] = molecular target: T4, Biotinylated Human VEGF165 (Acro, Catalog No. VE5-H82Q0) (human, UniProt P15692-4 27-191, biotinylated (site not stated)); assay: flow cytometry: antibody titrated on 293T-hPD-1-hCTLA-4 cells, detected with 2 ug/mL biotin-hVEGF165 and PE streptavidin
T4 construct: Bought protein; also called Biotinylated-hVEGF165; Biotin-hVEGF165
T4 sequence (looked up): T3 sequence (looked up)
Description: After centrifugation at 300 g for 5 minutes, the supernatant was discarded, and 100 μL of trispecific antibody solution serially diluted 3-fold with FACS buffer was added, with a starting concentration of 200 nM, and the same volume of FACS buffer was added as a negative control. After mixing, incubated at 4° C. for 60 minutes. After centrifugation and washing three times with FACS buffer, 2 μg/mL Biotin-hVEGF165 was added at 100 μL/well and incubated at 4° C. for 60 minutes. After centrifugation and washing three times with FACS buffer, 100 μL/well of 1:800 diluted PE Streptavidin (BD, Catalog No.: 554061) was added and incubated at 4° C. for 50 minutes. After centrifugation and washing three times with FACS buffer, 100 μL/well of FACS buffer was added to resuspend the cells, and the fluorescence signal was detected on a flow cytometer (BECKMAN COULTER cytoFLEX). The binding activity was fitted using a four-parameter model, and the EC₅₀ value of each antibody binding was calculated.

[6] = molecular target: T2, human CTLA-4 on the cell surface; assay: flow cytometry competition, 293T-hPD-1-hCTLA-4 cells (PD-1 co-expressed), biotin-human CD80
T2 sequence (P16410 36-223): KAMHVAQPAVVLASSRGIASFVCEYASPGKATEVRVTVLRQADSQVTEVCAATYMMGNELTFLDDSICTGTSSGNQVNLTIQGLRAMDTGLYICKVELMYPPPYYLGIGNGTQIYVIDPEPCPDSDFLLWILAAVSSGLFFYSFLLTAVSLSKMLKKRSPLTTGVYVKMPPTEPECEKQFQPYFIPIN
Description: PD-1 and CTLA-4 are co-expressed on functionally exhausted T cells in the tumor microenvironment, and the expression level of PD-1 is higher than that of CTLA-4. […] 200 μL of the cells were added to a 96-well U-bottom plate, approximately 1.4×10⁵ cells/well. After centrifugation at 300 g for 5 minutes, the supernatant was discarded. […] After washing three times with FACS buffer, 100 μL/well of 1:800 diluted PE Streptavidin was added and incubated at 4° C. for 50 min. After washing three times with FACS buffer, 150 μL/well of PBS was added to resuspend the cells, and the fluorescence signal was detected on a flow cytometer (BECKMAN COULTER cytoFLEX). The binding activity was fitted using a four-parameter model, and the IC₅₀ value of the blocking activity of each antibody was calculated.

EC50 [1]: 1.81 nM
EC50 [2]: 4.92 nM
IC50 [3]: 5.5 nM
IC50 [4]: 4.19 nM
EC50 [5]: 5.06 nM
IC50 [6]: 0.079 nM
B1: HC010-F8 (trispecific antibody, human IgG4 S228P, kappa)
heavy: EVQLVESGGGLVQPGGSLRLSCAASGFTFSSYGMSWVRQAPGKCLEWVSTISGGGRDTYYPDSVKGRFTISRDNSKNTLYLQMNSLRAEDTAVYYCARQNGITWFADWGQGTLVTVSSGGGGSGGGGSGGGGSGGGGSDIQMTQSPSSLSASVGDRVTITCRASESVDNYGISFMNWYQQKPGKAPKLLIYAASNQGSGVPSRFSGSGSGTDFTLTISSLQPEDFATYYCQQSKEVPWTFGCGTKVEIKGGGGSGGGGSGGGGSGGGGSEVQLVESGGGLVQPGGSLRLSCAASGYTFTNYGMNWVRQAPGKGLEWVGWINTYTGEPTYAADFKRRFTFSLDTSKSTAYLQMNSLRAEDTAVYYCAKYPHYYGSSHWYFDVWGQGTLVTVSSASTKGPSVFPLAPCSRSTSESTAALGCLVKDYFPEPVTVSWNSGALTSGVHTFPAVLQSSGLYSLSSVVTVPSSSLGTKTYTCNVDHKPSNTKVDKRV[human IgG4 Fc with S228P (EU numbers) not spelt out]AGGGGSGGGGSGGGGSGGGGSEVQLLESGGGLVQPGGSLRLSCAASGSIFSINHMAWYRQAPGKQRELVAGVNSRGTTNYVDSVKGRFTISRDNSKNTLYLQMNSLRAEDTAVYYCRALGGAVAAWGQGTLVTVSS
light: DIQMTQSPSSLSASVGDRVTITCSASQDISNYLNWYQQKPGKAPKVLIYFTSSLHSGVPSRFSGSGSGTDFTLTISSLQPEDFATYYCQQYSTVPWTFGQGTKVEIKRTVAAPSVFIFPPSDEQLKSGTASVVCLLNNFYPREAKVQWKVDNALQSGNSQESVTEQDSKDSTYSLSSTLTLSKADYEKHKVYACEVTHQGLSSPVTKSFNRGEC
notes: light: bevacizumab VL-kappa; also called H010-F8
